About 150 (0.038%) of roughly 390,000 compounds were called active. Calls come from the whole dose curve; as a rule, active = well fitted inhibition curve with a large enough effect; inconclusive = small, poorly fitted or top-dose-only effect; inactive = no such curve, though single readings can be large or run the other way. The inconclusive results got no clear call from the source. Potencies of inconclusive entries are doubtful fits and often do not repeat.
Biological target: Regulator of G-protein signaling 4 (Homo sapiens) (UniProt P49798)
Sequence of UniProt P49798 (P49798 whole entry, looked up): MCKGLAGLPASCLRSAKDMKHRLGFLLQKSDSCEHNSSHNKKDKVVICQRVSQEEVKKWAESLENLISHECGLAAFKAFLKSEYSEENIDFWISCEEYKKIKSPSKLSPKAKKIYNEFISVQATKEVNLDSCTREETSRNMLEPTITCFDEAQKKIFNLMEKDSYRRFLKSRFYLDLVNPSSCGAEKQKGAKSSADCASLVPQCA
Assay: Inhibitors of Regulator of G Protein Signaling (RGS) 4: qHTS; note: nearly all actives have a fitted effect of over 75% in size
Details: Transcreener GDP fluorescence polarization, RGS4-accelerated GTP hydrolysis; series mostly up to 114 µM
Excerpt: G-protein-coupled receptors (GPCRs) are well-established targets for drug discovery and development. Members of the "regulator of G-protein signaling" (RGS)-protein superfamily have recently emerged as critical modulators of specific GPCR signaling pathways. […] Combining specific RGS domain inhibitors with existing GPCR agonists should potentiate cellular responses and could also increase the specificity of action of existing therapeutics. Small molecule modulators of RGS domain activity should also have clinical utility in inhibiting or potentiating the actions of endogenous GPCR agonists. In particular, the diversity of RGS proteins with highly localized and dynamically regulated distributions in the human brain makes this family of proteins attractive targets for pharmacotherapy of central nervous system (CNS) disorders such as Parkinson's disease, schizophrenia, and anxiety.
This assay was used to screen the NIH Molecular Libraries Small Molecule Repository (MLSMR) in order to identify a small molecule that inhibits RGS4.
NIH Chemical Genomics Center [NCGC]
NIH Molecular Libraries Probe Centers Network [MLPCN]
Assay Submitter (PI): David Siderovski, University of North Carolina Chapel Hill (School of Medicine)
Two microliters of 500nM (2x working concentration) is dispensed into black medium-binding solid-bottom Kalypsys plates. Then with the Kalypsys pintool 23nl of control and compounds are transferred; the control compound is […] CCG-4986 (working concentration). After a 10 minute incubation at room temperature 2ul of antibody is added with the Kalypsys dispenser; (-)RGS4/Transcreener GDP solution in columns 3 and 4 which consisted of 10nM (2x working concentration) Alexa633, 20uM GTP, and 20 ug/ml GDP antibody and (+)RGS4/Transcreener GDP solution in columns 1,2, and 5 to 48 which consists of 900nM RGS4 (2x working concentration), 10nM Alexa633, 20 ug/ml GDP antibody. The plate is centrifuged at 1000 RPM for 15 seconds to remove any possible bubbles and then incubated for 5 minutes at ambient room temperature. An initial fluorescent polarization read (620 nm/688 nm) is performed on the Envision before the plate is incubated for 90 minutes at 30 deg C at a relative humidity of 80%. The plate is once more centrifuged at 1000 RPM for 15 seconds and another Envision fluorescent polarization (620 nm/688 nm) read is carried out.
Potency is the fitted concentration of half-maximal effect; tags give direction and shape of the fitted curve.

Row | Structure (SMILES) | Potency
1 | CCOC(=O)C1=C(C)N=c2s/c(=C\c3ccc(OCC(=O)O)c(OC)c3)c(=O)n2C1c1ccc(OC)cc1 (stereo unspecified) | inconclusive: 79.4 µM [inhibitor, partial curve, poor fit]
2 | O=C(O)Cn1cc(/C=c2/sc3nc4ccccc4n3c2=O)c2ccccc21 | inconclusive: 89.1 µM [inhibitor, partial curve, poor fit]
3 | Cc1ccccc1N/N=C/c1sc(=O)n(Cc2cccc(C(=O)O)c2)c1Cl | inconclusive: 39.8 µM [inhibitor, partial curve, poor fit]
4 | O=C1NN(c2ccc(F)c(Cl)c2)C(=O)/C1=C\c1cccc(OC(=O)c2cccs2)c1 | inconclusive: 39.8 µM [inhibitor, partial curve, poor fit]
5 | Cc1ccc(S(=O)(=O)Oc2ccc(/C=C3/C(=N)N4C(=NC3=O)SN=C4S(C)(=O)=O)cc2)cc1 | inconclusive: 17.8 µM [inhibitor, full curve, poor fit]
6 | Cc1ccc(S(=O)(=O)Oc2ccc(/C=C3\C(=N)N4N=C(S(C)(=O)=O)SC4=NC3=O)cc2)cc1 | inconclusive: 56.2 µM [inhibitor, partial curve, poor fit]

Reference: PubChem BioAssay AID504845 (National Center for Advancing Translational Sciences (NCATS), 2011)
